# Some of the results follow.
# System: T1, Caupolican (Caup) homeodomain DNA-binding domain
# T1 sequence: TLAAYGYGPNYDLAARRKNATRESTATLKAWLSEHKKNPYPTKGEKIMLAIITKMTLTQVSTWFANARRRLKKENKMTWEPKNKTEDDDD
# Assay: PBM E-score (8-mer, recovered from the published 9-mer minima) (E-score (dimensionless, -0.5 to 0.5)); Drosophila protein; higher = stronger relative binding preference, active = 0.31 or more
# Procedure, shortened: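 Caup's homeodomain DNA-binding domain (residues 214-303) was produced by in vitro transcription and translation and applied at 100 nM to custom-designed protein binding microarrays. Each value is an enrichment score giving relative binding preference for a short DNA word; higher means stronger. Published 9-mer scores were the minimum of their two constituent 8-mer scores, and the 8-mer values were recovered from those minima. A cutoff of 0.31 marks candidate binding sequences.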
row,Sequence,PBM E-score
1,AAGGAAAC,inactive: -0.0621
2,ACCCAGTG,inactive: -0.0472
3,GACGGGAC,inactive: -0.223
4,GAATCCAA,inactive: -0.0124
5,ATCCAACG,inactive: -0.0238
6,AATGCATT,≥ 0.195
7,AACCATGA,≥ 0.18
8,CAGGTTAC,inactive: 0.0705
9,CAGGATGG,inactive: -0.168
10,AGGCGAAA,inactive: -0.147
11,TAGCGATA,inactive: 0.08
12,CGGAGAGA,inactive: -0.13
13,GTCGGTTA,inactive: -0.0394
14,GGGCGAAC,inactive: -0.0696
15,CGGGCGAA,inactive: -0.218
16,CACCGGAC,inactive: -0.111
17,ACATTGGC,inactive: 0.0747
18,ACCGTCGT,inactive: 0.0301
19,CATCTTCC,inactive: 0.0482
20,AAATCATA,inactive: 0.0733
21,CGCCAGGA,inactive: -0.14
22,ACGAGCAG,inactive: 0.0663
23,AGCGACGG,inactive: -0.0948
24,CTATTTCA,inactive: 0.0861
25,CTGGGCTA,inactive: -0.188

row,Sequence,PBM E-score
1,ATACGACC,inactive: 0.013
2,CGCGCTCA,inactive: -0.113
3,AAGCGAAC,inactive: -0.0444
4,CAAGAGGA,inactive: 0.0662
5,GACCAACC,inactive: -0.0677
6,AAAGCAGA,inactive: 0.0272
7,GAATTGCC,inactive: -0.109
8,ATATTCCC,inactive: -0.0539
9,GCAAAGGA,inactive: -0.0085
10,ACATACCC,inactive: 0.186
11,ATCAACTA,≥ 0.203
12,AAGGTTTA,inactive: 0.0302
13,TTGTGAAA,inactive: 0.15
14,ACATGATC,active: 0.357
15,CGCCAGCG,inactive: -0.204
16,GCATTCCC,inactive: -0.193
17,TACCTCAA,inactive: 0.0676
18,ACGGAAGC,inactive: -0.0651
19,CACCCTGC,inactive: -0.129
20,ATCTTCTA,inactive: 0.0609
21,AAGGGTCA,inactive: -0.0709
22,GAGTAACA,inactive: 0.206
23,GATTTGGA,inactive: 0.045
24,CATAAATC,inactive: 0.0929
25,GGGAGGGA,inactive: -0.147

row,Sequence,PBM E-score
1,CCGGGAAA,inactive: -0.168
2,AAAGCATG,inactive: 0.177
3,ATTATGCA,inactive: 0.0953
4,AAAATATT,inactive: 0.123
5,GCTCTCCC,inactive: -0.199
6,CAGGGATG,inactive: -0.00986
7,CTGTAACC,inactive: 0.0981
8,CGATTTAA,inactive: 0.07
9,CATTAAAC,inactive: 0.184
10,ATGTCCGA,inactive: 0.279
11,AGTGGACC,inactive: -0.151
12,AATGGGGC,inactive: -0.23
13,TGCGATAA,inactive: 0.101
14,CGTACACA,inactive: 0.255
15,ATGTCACC,inactive: 0.279
16,CGTGTCTC,inactive: 0.208
17,AAGCAGAT,inactive: 0.0654
18,ACGATACC,inactive: 0.104
19,GTTGTAGA,inactive: 0.291
20,ATCCCGCG,inactive: -0.105
21,CGTTGCTC,inactive: -0.05
22,CGAATCGA,inactive: 0.067
23,ACTAGGCG,inactive: -0.0544
24,TGCAAACA,inactive: 0.215
25,CGAAAAGA,inactive: 0.0819

row,Sequence,PBM E-score
1,CAATCAAG,inactive: 0.0488
2,CACAGTTA,inactive: 0.214
3,AAATCGCC,inactive: -0.158
4,ATGTAGAA,inactive: 0.281
5,ATGAGTTG,inactive: 0.0654
6,GAGCGTGA,inactive: -0.0615
7,CTCGTGGA,inactive: 0.0149
8,ATAAGGCA,inactive: -0.0403
9,CGTACGCC,inactive: -0.0606
10,GGGAGCTA,inactive: -0.114
11,ATGAAGAC,inactive: -0.00671
12,TAGCTGGA,inactive: -0.0238
13,AACTTTAA,inactive: 0.0347
14,AAGGATCA,≥ 0.0999
15,GAATGTCC,inactive: 0.145
16,ATGCGTGC,inactive: -0.0483
17,AAAAATTA,inactive: 0.0726
18,CTGTCACA,inactive: 0.167
19,GAAAGCCA,inactive: -0.151
20,AATGTCCG,inactive: 0.165
21,AGACTGGA,inactive: -0.0546
22,CATCAACA,inactive: 0.204
23,CACATGTG,inactive: 0.18
24,TGAGCTCA,≥ -0.0796
25,CAGGAGTC,inactive: -0.0753

row,Sequence,PBM E-score
1,CACAAGGC,inactive: 0.0776
2,CCTGGCTA,inactive: -0.0965
3,AGAAATGG,inactive: -0.00893
4,ACTGAAAT,inactive: 0.0189
5,ATGATGTC,active: 0.312
6,CCCTCAGG,inactive: -0.185
7,AGTTACTG,inactive: 0.0709
8,AGTATTAC,inactive: 0.221
9,ACTCGGGA,inactive: -0.117
10,CGATCCGC,inactive: -0.199
11,AACGTGGC,inactive: -0.118
12,CAACCGGA,inactive: -0.0434
13,CAATCTAG,inactive: 0.0281
14,AAGCCCAA,inactive: -0.0527
15,CACAGAGA,inactive: 0.0804
16,GAATATTC,inactive: 0.0294
17,GCGTGACC,inactive: -0.172
18,CACTAACG,inactive: -0.0323
19,CCTTCCTC,inactive: -0.211
20,GACCTGCC,inactive: -0.199
21,CGGTAAAA,inactive: 0.0447
22,GAAGCAGA,inactive: -0.0258
23,AAACAGCT,inactive: 0.028
24,GAAGCCAC,inactive: -0.129
25,GATGAATA,inactive: 0.159

row,Sequence,PBM E-score
1,AGGTACGA,≥ 0.0909
2,CCCGTCAA,inactive: -0.139
3,AGTAGACA,inactive: 0.17
4,CATTGCCG,inactive: -0.0521
5,CACACTTC,inactive: 0.0178
6,AGATGATA,inactive: 0.12
7,AACCTAAA,inactive: 0.0122
8,AGCAGGAG,inactive: -0.113
9,ATTGTGTA,inactive: 0.283
10,AGAGTCAG,inactive: 0.00815
11,CCACCACA,inactive: -0.0806
12,AACAAAGG,inactive: 0.132
13,CCGACTTA,inactive: -0.0361
14,GTGTCGAA,inactive: 0.241
15,ACTTAGCC,inactive: -0.032
16,AATGTGTG,inactive: 0.142
17,CGCTGTTA,inactive: 0.0663
18,ACATATCT,inactive: 0.303
19,CTTTTTGA,inactive: -0.00712
20,CCTTGACA,inactive: 0.189
21,AGTGGGTG,inactive: -0.00205
22,AACCCTGG,inactive: -0.105
23,GTTCTTGA,inactive: 0.0957
24,GCGTCGAC,inactive: -0.0367
25,CATCCATC,inactive: 0.0368

row,Sequence,PBM E-score
1,CACGAATC,inactive: 0.0584
2,CGTATACA,inactive: 0.288
3,GAGCCCTA,inactive: -0.194
4,ATCGTTCG,inactive: 0.0642
5,ATTAGTAA,inactive: 0.206
6,AATCCTGA,inactive: 0.012
7,CATGTTCA,active: 0.396
8,CCCTTACA,inactive: 0.152
9,CCGAGTGC,inactive: -0.154
10,GACGTTCA,inactive: 0.00148
11,GCGGCCCA,inactive: -0.289
12,TGCTTTAA,inactive: 0.0787
13,ATTGGGAA,inactive: 0.0708
14,CTATTCCC,inactive: -0.0582
15,GGAAAACC,inactive: -0.102
16,GCCCGTCA,inactive: -0.226
17,CTACATTC,inactive: 0.119
18,GCTACACA,inactive: 0.185
19,CTGGAAAC,inactive: 0.0891
20,ACCGGCAG,inactive: -0.244
21,CAGCGCGC,inactive: -0.143
22,AACGACTC,inactive: -0.0325
23,GCTACGAC,inactive: -0.0165
24,CACTAATC,inactive: 0.0981
25,AGCTGCTA,inactive: 0.00834

row,Sequence,PBM E-score
1,CATTTTTA,inactive: 0.0173
2,CACTTCTG,inactive: 0.0395
3,CATGAGTC,inactive: 0.0912
4,TAGAGCCA,≥ -0.0447
5,AATGAATC,inactive: 0.0715
6,AGTACTAG,inactive: 0.144
7,TGGAAAAA,inactive: 0.0566
8,CGACCAAG,inactive: -0.136
9,CTTTTGAC,inactive: 0.0645
10,AGAACAGA,inactive: 0.16
11,CATGCTCC,inactive: 0.0916
12,AGTGCGGG,inactive: -0.187
13,GATGTCAA,active: 0.332
14,ATTCCAGA,inactive: 0.0248
15,CATGGGGA,inactive: -0.00204
16,GAGAATCA,inactive: -0.0157
17,TATCCGCA,≥ 0.0482
18,AGGCGCTG,inactive: -0.0638
19,ATGTTCAC,active: 0.334
20,CCGACATC,inactive: 0.2
21,GAAGTGGC,inactive: -0.0447
22,CCTACGGA,inactive: -0.166
23,GCCGTTTA,inactive: -0.0967
24,CGTTTGTA,inactive: 0.148
25,CTCTTCAG,inactive: -0.0878

row,Sequence,PBM E-score
1,CTCGTCTC,inactive: -0.0812
2,CGTTATTA,inactive: 0.116
3,ACAAGGAC,inactive: 0.305
4,ATCTGGTA,inactive: 0.152
5,GTAAGTTA,inactive: 0.155
6,CAAGCATC,inactive: -0.00124
7,ACGTACGC,inactive: 0.0155
8,AGACCTCC,inactive: -0.206
9,ATGCATGG,inactive: 0.0164
10,TATATATA,inactive: 0.216
11,AGGGAATA,inactive: 0.0498
12,CAAATCGG,inactive: -0.00141
13,CAACATAA,inactive: 0.295
14,GTGAGCAC,inactive: -0.0713
15,CAGGTGCA,inactive: -0.07
16,CACGATCG,inactive: 0.0268
17,AATGGGAC,inactive: 0.0228
18,CTTGAGGA,inactive: -0.142
19,ATTATGAC,inactive: 0.223
20,CGGGACCC,inactive: -0.247
21,AGTGCAAA,inactive: 0.0755
22,ACCCGTCA,inactive: -0.0785
23,AGCGCCCC,inactive: -0.362
24,CACGCTCG,inactive: -0.051
